These results are taken from the supplement of paper PMC10600219.

Where a name gives a salt, the structure may show the parent alone. Over roughly 2,800 compounds, “cell viability relative to vehicle” has its median near 1.1; the lowest 2% begin near 0.19. Some of the results follow.

For the experiment, the system named is NCI-H2228 parental. The experiment is described as follows: cell viability relative to vehicle (fraction of vehicle); NCI-H2228 is an ALK-positive lung cancer line and DTP means drug-tolerant persister; higher = less growth inhibition. Conditions: 100 nM; treatment time 6 days. In outline: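 Drug-tolerant persister NCI-H2228 cells, produced by 13 days in 1000 nM of a targeted drug, and their parental counterparts were seeded into 384-well plates and, the following day, given the 3114-agent TargetMol anti-cancer compound library at 100 nM or DMSO vehicle. After 6 days, the CellTiter-Glo 3D Cell Viability Assay was used to read ATP. Each entry reports viability compared with vehicle-treated cells.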
For the compound `CC(CCc1ccccc1)NCC(O)c1ccc(O)c(C(N)=O)c1` (centres undefined) [Labetalol hydrochloride], the cell viability is 1.04.
Turning to `Cn1cc(-c2ccc3ncc(Cc4ccc5ncccc5c4)n3n2)cn1`, the cell viability stood at 0.958.
In the case of `CN1C(C)(C)CCCC1(C)C` [Pempidine] it was 1.15; in that of `CN(C)/N=N/c1[nH]cnc1C(N)=O` [Dacarbazine], 1.1.
Regarding `C[N+](C)(C)CCCCCC[N+](C)(C)C` [Hexamethonium Bromide], the cell viability was 0.895.
In the case of `CC1C(=O)OC2C(O)C34C5CC(C(C)(C)C)C36C(OC(=O)C6O)OC4(C(=O)O5)C12O` (centres undefined) [Ginkgolide B] it was 1.18; in that of `O=c1ccc2ccc(OCCCCN3CCN(c4cccc5sccc45)CC3)cc2[nH]1` [Brexpiprazole], 1.26.
In the case of `COc1cccc(-c2cc(NCc3ccc4c(c3)OCO4)nc(N)n2)c1` [Wnt agonist 1] it was 0.383; in that of `Cc1cc2cc(Oc3ccnc(Nc4cccc(CS(=O)(=O)NCCN(C)C)c4)n3)ccc2[nH]1` [Sulfatinib], 1.03; in that of `COc1ccc([C@@H]2CC(=O)c3c(O)cc(O[C@@H]4O[C@H](CO[C@@H]5O[C@@H](C)[C@H](O)[C@@H](O)[C@H]5O)[C@@H](O)[C@H](O)[C@H]4O)cc3O2)cc1O` [Hesperidin], 1.03.
In the case of `O=c1cc(N2CCOCC2)oc2c(-c3cccc4c3sc3ccccc34)cccc12` it was 1.13; in that of `CC(C)(C(=O)O)c1ccc(C(O)CCCN2CCC(C(O)(c3ccccc3)c3ccccc3)CC2)cc1` (centres undefined) [Fexofenadine hydrochloride], 1.36.
On to `COc1cc2cc(Oc3ccc4ccc(=O)oc4c3)c(=O)oc2cc1O` [Daphnoretin], for which the cell viability was 1.06.
Consider `CN(C)CCCN1c2ccccc2Sc2ccccc21` [Promazine hydrochloride], for which the cell viability was determined as 1.02.
In the case of `CCCCCCCCCCCCCC(=S)NCCCC[C@H](NC(=O)OCc1ccccc1)C(=O)Nc1ccccc1` [Thiomyristoyl] it was 1.17; in that of `COC(=O)C[C@H](NC(=O)[C@H](C)NC(=O)[C@@H](NC(=O)OCc1ccccc1)C(C)C)C(=O)CF`, 1.18; in that of `COc1cc(O)c2c(c1)oc(=O)c1c3cc(O)c(O)cc3oc21` [Wedelolactone], 0.907.
For the compound `O=C(/C=C/c1ccc2ccccc2n1)c1ccncc1`, the cell viability stood at 1.07.
In the case of `Clc1ccc(NN=C(c2ccccc2)c2ccccn2)nc1` it was 0.86; in that of `O=C(NCCCn1ccnc1)c1cc(-c2ccco2)on1`, 1.01; in that of `C[N+]1(C)[C@@H]2C[C@@H](OC(=O)C(O)(c3cccs3)c3cccs3)C[C@H]1[C@@H]1O[C@@H]12` [Tiotropium bromide], 1.13.
In the case of `C[C@H]1COc2c(C3(N)CC3)c(F)cc3c(=O)c(C(=O)O)cn1c23` [Pazufloxacin Mesylate] it was 1.04; in that of `CC(C)(C)C(=O)Oc1ccc(S(=O)(=O)Nc2ccccc2C(=O)NCC(=O)O)cc1` [Sivelestat], 1.08.
For `CSc1ccc2c(c1)C(N1CCN(C)CC1)Cc1ccccc1S2` (centres undefined) [Methiothepin mesylate], the cell viability worked out at 0.981.
Take `Cc1c(C)c2c(c(C)c1O)CCC(C)(COc1ccc(CC3SC(=O)NC3=O)cc1)O2` (centres undefined) [Troglitazone]: the cell viability worked out at 0.981.
For `COc1ccc(-c2cc(=O)c3c(O)cc(O)c(-c4cc(-c5cc(=O)c6c(O)cc(O)cc6o5)ccc4OC)c3o2)cc1`, the cell viability stood at 0.908.
On to `C[N+]1(C)[C@@H]2CC[C@H]1C[C@@H](OC(=O)C(O)c1ccccc1)C2` (some centres undefined) [Homatropine Methylbromide], for which the cell viability was found to be 1.08.
Regarding `O=S(=O)(c1ccc(Cl)cc1)N1CCN(c2ccnc3cc(Cl)ccc23)CC1`, the cell viability was 1.08.
In the case of `CC(C)N(C[C@H]1O[C@@H](n2cnc3c(N)ncnc32)[C@H](O)[C@@H]1O)[C@H]1C[C@@H](CCc2nc3cc(C(C)(C)C)ccc3[nH]2)C1` [Pinometostat], the cell viability worked out at 1.14.
In the case of `C[C@H](NP(=O)(OC[C@H]1O[C@@H](n2ccc(N)nc2=O)C(F)(F)[C@@H]1O)Oc1ccccc1)C(=O)OCc1ccccc1` (some centres undefined) [Acelarin] it was 0.135; in that of `C[C@]12CC[C@H](O)CC1=CC[C@@H]1[C@@H]2CC[C@]2(C)C(n3cnc4ccccc43)=CC[C@@H]12` [Galeterone], 0.925; in that of `CC1=C(/C=C/C(C)=C/C=C/C(C)=C/C(=O)O)C(C)(C)CCC1` [Tretinoin], 0.614.
In the case of `CC(C)=CCC[C@](C)(O[C@@H]1O[C@H](CO)[C@@H](O)[C@H](O)[C@H]1O)[C@H]1CC[C@]2(C)[C@@H]1[C@H](O)C[C@@H]1[C@@]3(C)CC[C@H](O)C(C)(C)[C@@H]3[C@@H](O[C@@H]3O[C@H](CO)[C@@H](O)[C@H](O)[C@H]3O[C@@H]3O[C@@H](C)[C@H](O)[C@@H](O)[C@H]3O)C[C@]12C` [Ginsenoside Re] it was 1.03; in that of `CC(C)=CC[C@@H](O)C1=CC(=O)c2c(O)ccc(O)c2C1=O` (racemic) [(±)-Shikonin], 1.14.
Take `Nc1nc(NC2CC2)cc(-c2cccc(Cl)c2Cl)n1`: the cell viability stood at 1.06.
As to `CC(=O)Oc1ccccc1C(=O)O` [Aspirin], the cell viability turned out to be 1.16.
In the case of `CNS(=O)(=O)CCc1ccc2[nH]cc(C3CCN(C)CC3)c2c1` [Naratriptan] it was 1.11; in that of `COc1ccc2ccc(=O)oc2c1CC=C(C)C` [Osthole], 1; in that of `O=C(Nc1nc2cccc(-c3ccc(CN4CCS(=O)(=O)CC4)cc3)n2n1)C1CC1` [Filgotinib], 1.05.
As for `CSCC1CN(/N=C/c2ccc([N+](=O)[O-])o2)C(=O)O1` (centres undefined) [Nifuratel], the cell viability was 1.23.
`N=C(N)NS(=O)(=O)c1ccc(N)cc1` [Sulfaguanidine]: the cell viability worked out at 1.14.
In the case of `Cc1cc(Nc2ncc3c(n2)N(C)C(=O)N(c2cc(NC(=O)c4cccc(C(F)(F)F)c4)ccc2C)C3)n(C)n1` [Pluripotin] it was 0.615.
`O=C(N1CCCC1)n1ccnn1`: the cell viability turned out to be 1.18.
On to `Cc1ncc(CO)c(CO)c1O` [Pyridoxine], for which the cell viability was 1.12.
In the case of `Cc1ncc(CO)c(CO)c1O` [Metadoxine] it was 1; in that of `O=C(O)c1ccc(-c2c[nH]c3ncc(-c4ccccc4)cc23)cc1C1CCCC1`, 1.05; in that of `C=CC(=O)Nc1cc(Nc2nccc(-c3c[nH]c4ccccc34)n2)c(OC)cc1N(C)CCN(C)C`, 0.638.
In the case of `O=[N+]([O-])c1cncn1CCN1CCOCC1` [Nimorazole] it was 0.938; in that of `CC(C)(NS(=O)(=O)c1ccc2c(Cl)cnc(N=C(N)N)c2c1)C(=O)O`, 1.08.
